Screen size: about 340,000 compounds; about 6,900 (2%) were called active. Cut-off read from the data, not from the text of the source: active = inhibition above about 30%; inactive = below that, where a call was filed. The entries are a selection whose mix differs from that of the whole data set. The source gives no active or inactive call for entries shown without one.

Chain of UniProt P14416 (P14416 whole entry, looked up): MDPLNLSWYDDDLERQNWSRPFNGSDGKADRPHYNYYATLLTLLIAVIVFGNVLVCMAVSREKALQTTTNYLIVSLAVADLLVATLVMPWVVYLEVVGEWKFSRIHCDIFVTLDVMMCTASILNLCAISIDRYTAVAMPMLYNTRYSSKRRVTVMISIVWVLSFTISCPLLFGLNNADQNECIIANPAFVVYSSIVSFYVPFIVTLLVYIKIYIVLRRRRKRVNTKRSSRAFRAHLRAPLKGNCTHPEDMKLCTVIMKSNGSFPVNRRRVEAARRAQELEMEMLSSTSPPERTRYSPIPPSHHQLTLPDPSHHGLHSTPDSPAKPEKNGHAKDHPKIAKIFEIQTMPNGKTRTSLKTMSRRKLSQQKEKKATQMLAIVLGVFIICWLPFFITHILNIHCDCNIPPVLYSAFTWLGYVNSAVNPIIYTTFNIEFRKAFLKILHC

The target in the assay is D(2) dopamine receptor (Homo sapiens) (UniProt P14416). In words: HTS Assay for Allosteric Antagonists of the Human D2 Dopamine Receptor: Primary Screen for Antagonists. Note: 0% is about no effect. Particulars: HEK293 TREx D2 cells, calcium flux, dopamine EC80; at 10 µM; stronger effect = higher value. In short, it runs like this:
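In this primary screen, negative modulation is detected by tracking calcium flux after an EC80 dopamine challenge in inducible HEK293 T-REx D2 cells preexposed to test compound for 180 s.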
A general note: Calcium assays in cells follow changes in intracellular calcium, usually with a dye or a luminescent sensor.
`CCC1CCCCN1CCCNC(=O)CS(=O)Cc1nc(-c2ccc(OC)c(OC)c2)oc1C` (stereo not given): the inhibition was active: 35.6%.
Take `COc1ccc(/C=C/c2nc(C#N)c(NCCc3ccc(OC)c(OC)c3)o2)cc1OC`: the inhibition is -10.5%.
The same measure for `COc1ccc(C(=O)N2CC(=O)Nc3ccc(F)cc3C2c2ccc(F)cc2)c(OC)c1` (stereo not given): 2.79%; for `CCOC(=O)c1cc(C)n(CC2CCC(C(=O)Nc3ccc(Cl)cc3)CC2)c1C` (stereo not given): 2.6%.
Under `O=C(c1ccco1)N1CCN(Cc2ccccc2Br)CC1` stands active: 78.5%.
`CCC1CCc2nc3sc(C(=O)Nc4ccc(F)cc4F)c(N)c3cc2C1` (stereo not given): the inhibition is -4.87%.
Take `CC(=O)Nc1cccc(C(=O)NCc2ccc3c(c2)CCN3C(=O)c2ccccc2)c1`: the inhibition was -11.3%.
The same measure for `CCOc1ccc(CCNC(=O)Cn2nnc(-c3ccccc3)n2)cc1OCC`: 18.2%.
With `Cc1ccc2cccc(NC(=O)c3ccc(-c4cccc([N+](=O)[O-])c4)o3)c2n1`, the inhibition is -20.5%.
On to `COc1cc(OC)c(NC(=O)NC(C)c2c(-n3cccc3)sc(C)c2C)cc1Cl` (stereo not given), for which the inhibition was 19.3%.
For `CCCCNC(=O)CSc1nc2nc(C)c(Cc3ccccc3C)c(C)n2n1`, the inhibition was -3.22%.
The same measure for `CCOc1ccc(NS(=O)(=O)c2cc(Br)cc3c2N(C(=O)C2CC2)CC3)cc1`: -8.12%.
In the case of `COC(C[C@H]1O[C@@H]1[C@@H](O)[C@H](C)OCc1ccccc1)OC`, the inhibition is active: 35.9%.
The same measure for `Cc1ccccc1-c1nc(CS(=O)(=O)CC(=O)N2CCN(c3ccccc3)CC2)c(C)o1`: 27%; for `COc1ccccc1N1CCN(CCC(=O)Nc2cccc(Cl)c2)CC1`: active: 96.2%.
As for `CCCCNC(=O)CCn1c(=O)c2ccccc2n(Cc2ccccc2C#N)c1=O`, the inhibition came to 9.36%.
As for `S=C1SCN(Cc2ccccn2)CN1Cc1ccco1`, the inhibition is active: 36.1%.
Consider `CCOc1ccc(CC(=O)Nc2c(C(=O)c3ccc(C)cc3)oc3ccccc23)cc1OCC`, for which the inhibition is -19.3%.
As for `CCc1ccccc1NC(=O)c1ccc2nc(CCc3ccccc3)oc2c1`, the inhibition is -13.4%.
Consider `Cc1ccc(C(=O)COC(=O)C(CC(C)C)NC(=O)C2CCC(C)CC2)cc1` (stereo not given), for which the inhibition was -13.3%.
In the case of `O=C(CCCN1Cc2ccccc2C1)c1ccc(F)cc1`, the inhibition is active: 79.5%.
As to `O=C(Cc1cccc([N+](=O)[O-])c1)NCc1nc2cccnc2n1Cc1ccc(F)cc1`, the inhibition was -3.81%.
Take `CC(=O)c1cccc(NC(=O)C2CCCN(c3nnc(-n4cccc4)s3)C2)c1` (stereo not given): the inhibition came out at 13.1%.
With `COc1cc(C2N=C(N)Nc3nc4ccccc4n32)ccc1OCCC(C)C` (stereo not given), the inhibition stood at 12.8%.
On to `O=C(COc1ccc(S(=O)(=O)NC2CCCCC2)cc1)Nc1ccc(C(F)(F)F)cc1`, for which the inhibition is 7.78%.
The same measure for `Cc1ccc[n+](CC(=O)Nc2cccc([N+](=O)[O-])c2)c1`: active: 31.6%.
`CCOc1cccc(CC(=O)N2CCc3c([nH]c4ccccc34)C2c2ccc(F)cc2)c1OCC` (stereo not given): the inhibition amounted to 6.22%.
On to `CCOc1ccc(N(CC)S(=O)(=O)N2CCCC(C(=O)NCc3ccccc3Cl)C2)cc1` (stereo not given), for which the inhibition is -12.5%.
Turning to `O=S(=O)(c1ccccc1)n1nc(-c2ccccc2)nc1NCc1ccc(Cl)cc1`, the inhibition was determined as 8.12%.
Regarding `Cc1ccc(CNC(=O)CSCc2ccc(F)cc2)cc1`, the inhibition turned out to be 4.7%.
As for `CC(=O)Nc1ccc(NC(=O)CCNS(=O)(=O)c2cccc3nsnc23)cc1`, the inhibition is 2.32%.
Take `CCc1ccc2oc(-c3cccc(NC(=O)c4ccc(N5CCC(C)CC5)c([N+](=O)[O-])c4)c3)nc2c1`: the inhibition is -14.2%.
Regarding `Cc1ccccc1CNC(=O)Cn1ncn2nc(-c3cccs3)cc2c1=O`, the inhibition was 5.55%.
On to `CCOc1ccccc1CNC(=O)c1cc2cc(S(=O)(=O)N3CCCCC3)ccc2n1C`, for which the inhibition worked out at 3.3%.
Consider `COc1cccc(NC(=O)Cn2cc(S(=O)(=O)N3CCCC3)c(S(=O)(=O)N3CCCC3)c2)c1`, for which the inhibition is 2.5%.
Under `Cc1cccc(CSc2cn(CC(=O)N3CCCC3)c3ccccc23)c1` stands -17.6%.
In the case of `CCC(Oc1ccccc1)C(=O)Nc1ccc2oc(-c3ccc(OC)cc3)nc2c1` (stereo not given), the inhibition is -4.6%.
As to `CCc1cccc(C)c1NC(=O)CSc1nc2ccccc2nc1N1CCOCC1`, the inhibition is 4.31%.
Turning to `COc1ccc(Cn2c(SCc3ccc(C(=O)NCc4cccs4)cc3)nc3cccnc32)cc1`, the inhibition was -12%.
`COc1ccccc1CN1C(=O)CN(C2CCCCCC2)C(=O)C1c1ccc(C)cc1` (stereo not given): the inhibition was -11.8%.
`Cc1cc(F)ccc1NS(=O)(=O)c1c(C)nc2scc(C)n2c1=O`: the inhibition is -15.5%.
In the case of `CSc1ccc(CCNC(=O)CN2C(=O)c3cccnc3Oc3ccc(C)cc32)cc1`, the inhibition is -5.12%.
As to `Cc1ccc2c(=O)cc(C(=O)N(Cc3ccc(N(C)C)cc3)C3CCS(=O)(=O)C3)oc2c1` (stereo not given), the inhibition is -0.308%.
Under `CCCN1CCN(CCCNC(=O)Cn2nc(CC)n3c(cc4occc43)c2=O)CC1` stands 16%; under `Cc1cccc(NC(=O)Cn2nnc(C(=O)Nc3ccccc3Br)c2N)c1C`, -6.99%.
Regarding `Cn1cc(C(=O)NCc2ccccc2)c(=O)c2cc(S(=O)(=O)N3CCOCC3)ccc21`, the inhibition was 1.64%.
Under `O=C(NC1CC(=O)N(c2ccc(Cl)cc2)C1)c1ccc2c(c1)OCO2` (stereo not given) stands -20.1%; under `CCOc1ccccc1NC(=O)c1nc2nc(C)cc(C(F)F)n2n1`, 2.41%; under `COc1cccc(N2CCN(C(=O)C3CCN(S(=O)(=O)c4c(C)noc4C)CC3)CC2)c1`, -4.98%.
Consider `Cc1ccc(S(=O)(=O)N(CCc2ccccc2)CC(=O)Nc2cc(C)ccc2C)cc1`, for which the inhibition was 19.7%.
Consider `Cc1cccc(N2CCN(Cc3nc(-c4ccccc4Cl)oc3C)CC2)n1`, for which the inhibition is active: 39.5%.
With `CN1CCC(=O)N(CCSc2ccc(Br)cc2)CC1`, the inhibition is active: 53.5%.
Under `CN(C)S(=O)(=O)c1ccc(C(=O)NC2CC(=O)N(c3ccc4c(c3)OCCO4)C2)cc1` (stereo not given) stands -15%; under `CCOC(=O)c1cc(-c2ccc(C)cc2)n(CCC(=O)Nc2ccc(C(C)C)cc2)c1C`, 1.08%; under `COc1cc(C2C(C(=O)Nc3ccc(C)cc3C)=C(C)Nc3nc4ccccc4n32)cc(OC)c1OC` (stereo not given), -0.76%.
With `Cc1cccc(NC(=O)CS(=O)(=O)c2nc(-c3ccccc3)cn2-c2cccc(Cl)c2)c1C`, the inhibition stood at 14.9%.
As for `CC(=O)N1CCCc2cc(S(=O)(=O)N(C)CC(=O)Nc3cccc(C)c3C)ccc21`, the inhibition is -4.45%.
In the case of `CCOc1ccc(CCNC(=O)c2cn(CC)c3ccc(S(=O)(=O)N4CCCCCC4)cc3c2=O)cc1OCC`, the inhibition was 1.83%.
Regarding `O=C1c2[nH]nc(-c3ccccc3O)c2C(c2cccc(Cl)c2)N1Cc1cccnc1` (stereo not given), the inhibition was determined as 19.6%.
In the case of `CCOC(=O)c1sc(NC(=O)CSc2n[nH]c(-c3ccccc3)n2)c(C#N)c1C`, the inhibition is active: 38.7%.
Under `Cc1cccc(CNC(=O)Cn2ccc3cc(S(=O)(=O)N4CCCC4)ccc32)c1` stands 5.69%; under `Cc1cccc2c1N(CCOc1ccccc1Cl)C(=O)C2=O`, active: 30.4%; under `CCCCN1CC(c2nc3ccccc3n2CCCCOc2ccc(C)c(C)c2)CC1=O` (stereo not given), 13.7%.
With `COc1ccc(OC)c(NS(=O)(=O)c2ccc3[nH]c4c(c3c2)CCCCC4)c1`, the inhibition is 5.63%.
With `Cc1ccc(F)c(NC(=O)Nc2ccc3snnc3c2)c1`, the inhibition is -11.1%.
Take `Cc1[nH]c2ccc(C(=O)NCCCN3CCCCCC3)cc2c1C`: the inhibition was active: 61.7%.
`CNC(=O)C1CCC(Cn2c(=O)c3sccc3n(CC(=O)Nc3ccc(C)c(F)c3)c2=O)CC1` (stereo not given): the inhibition was -3.95%.
Take `COc1cc(NC(=O)CN2C(=O)CN(C)C(=O)c3ccccc32)cc(OC)c1OC`: the inhibition was -19%.
For `COc1ccc(C)cc1NC(=O)C1CCCN(S(=O)(=O)c2ccc3[nH]c(=O)ccc3c2)C1` (stereo not given), the inhibition was determined as 8.5%.
Regarding `O=C(C1CCCN(S(=O)(=O)c2cccc3cccnc23)C1)N1CCN(c2ccccc2F)CC1` (stereo not given), the inhibition was active: 37%.
Consider `CCn1c2ccccc2c2cc(NC(=O)COc3cccc(C)c3)ccc21`, for which the inhibition amounted to 1.42%.
Take `CCOc1ccc(CCNC(=O)Cn2ncc3c(=O)oc4ccc(C)cc4c32)cc1`: the inhibition amounted to 0.955%.
For `CCOC(=O)c1c(C)[nH]c(C)c1S(=O)(=O)N1CCC(C(=O)Nc2ccc(C)cn2)CC1`, the inhibition was 4.24%.
In the case of `CCOc1cc2[nH]c(=O)n(CCCC(=O)N3CCN(c4ccc(OC)cc4)CC3)c(=O)c2cc1OCC`, the inhibition was -26.1%.
The same measure for `O=C(c1ccc(CSc2nc3ccncc3n2Cc2cccc(F)c2)cc1)N1CCCCC1`: 4.85%; for `CCOc1ccc(N(CC(=O)NCc2ccc(C)cc2)S(=O)(=O)c2c(C)noc2C)cc1`: 0.798%.
On to `CCOC(=O)c1c(C)oc2ccc(N(C(=O)c3ccncc3)S(=O)(=O)c3ccc(Br)cc3)cc12`, for which the inhibition was 15.7%.
On to `CC1=C(c2ccc(C(C)C)cc2)S(=O)(=O)NC1=NCc1ccccc1Br`, for which the inhibition came out at 15.3%.
As to `Cc1cccc(NC(=O)Cn2c(=O)nc(-c3ccccc3)c3ccccc32)c1C`, the inhibition is -1.53%.
Regarding `CCC(=O)N1c2ccccc2CC1C(=O)NCCc1ccc(C)cc1` (stereo not given), the inhibition was -12.3%.
For `CCN(CC)CCNC(=O)c1nn(C)c2c1CS(=O)(=O)c1ccccc1-2`, the inhibition is -7.74%.
The same measure for `CCOC(=O)c1ccc(N2C(=O)c3n[nH]c(-c4ccco4)c3C2c2ccc(O)c(OC)c2)cc1` (stereo not given): 22.8%.
On to `Cc1ccc(CNC(=O)c2nn(C)c3c2CS(=O)(=O)c2ccccc2-3)cc1`, for which the inhibition was -10.5%.
Regarding `Cc1cc(NC2CCCCC2)nc2ccccc12`, the inhibition is active: 44%.
In the case of `Cc1cc(NC(=O)CCC(=O)N(C2CC2)C2(C(=O)NC3CCCC3)CCC(C)CC2)no1` (stereo not given), the inhibition is active: 37.2%.
Take `O=C(CSCc1nc2cccnc2n1C1CCCCC1)NCc1cccc(Cl)c1`: the inhibition stood at 4.61%.
Take `COc1ccc(-n2nc(C(=O)N3CCN(c4cccc(C)c4C)CC3)c3c4ccccc4n(C)c3c2=O)cc1`: the inhibition was -14.2%.
Under `CNC(=O)COc1ccc(NC(=O)CCn2nc(-c3ccc(C)cc3)c3ccccc3c2=O)cc1` stands -11.5%.
With `O=C(Nc1nc2nc(-c3ccccc3)cc(=O)n2[nH]1)c1ccc(Cl)cc1`, the inhibition turned out to be 12.6%.
`CCC(C)OC(=O)/C(C#N)=C\c1ccc(-c2ccccc2Cl)o1` (stereo not given): the inhibition was -0.119%.
On to `COc1cc(OC)c(NS(=O)(=O)c2cc(-c3cnc(C)o3)ccc2OC)cc1Cl`, for which the inhibition is -17.7%.
As to `Cc1ccc(NC(=O)CN2C(=O)CCn3nc(-c4cccn4C)cc32)cc1`, the inhibition was -2.05%.
In the case of `CCOc1ccc(OCC)c(NC(=O)CCC(=O)N2CCOc3ccccc32)c1`, the inhibition worked out at 5.04%.
Consider `CCCC1=Nc2cc(C(=O)NCCc3ccc(OC)cc3OC)ccc2Sc2ccccc21`, for which the inhibition was -6.44%.
`CSc1ncc(C(=O)Nc2ccc(F)cc2F)c(-c2ccccc2)n1`: the inhibition is -2.2%.

A word on the inhibition: it is the relative decrease from the control value, in per cent.

These data come from PubChem BioAssay AID485344 (National Center for Advancing Translational Sciences (NCATS), 2010).
